Results as given in PubChem BioAssay AID2675 (National Center for Advancing Translational Sciences (NCATS), 2010).
Out of some 280,000 compounds screened, about 100 (0.036%) were called active. Inconclusive means that the source gave no clear call. Such entries were picked first, then a sample of the others. Calls come from the whole dose curve; as a rule, active = well fitted inhibition curve with a large enough effect in the signal ratio, with a control signal flat (not every such curve was filed as active); inconclusive = small, poorly fitted or top-dose-only effect, or effect the other way, or a change in a side signal; inactive = no such curve, though single readings can be large or run the other way; the % refers to the signal ratio. Where the call is inconclusive, the potency comes from a doubtful curve fit. “Side channel” marks fits to a control or component signal instead of the main read-out.
% is set by controls: 0 for no effect and ±100 for the full control effect; potency is the fitted concentration of half-maximal effect; tags give direction and shape of the fitted curve or compound fluorescence and quenching.

The compounds below were run against Muscleblind-like protein 1 (Homo sapiens) (UniProt Q9NR56) (assay: qHTS Assay for Inhibitors of MBNL1-poly(CUG) RNA binding). Details: TR-FRET MBNL1-His/biotin-(CUG)12 binding, 665/545 ratio; activity change, negative = inhibition: at 57.5 µM (top of the series).
Sequence of UniProt Q9NR56 (Q9NR56 whole entry, looked up): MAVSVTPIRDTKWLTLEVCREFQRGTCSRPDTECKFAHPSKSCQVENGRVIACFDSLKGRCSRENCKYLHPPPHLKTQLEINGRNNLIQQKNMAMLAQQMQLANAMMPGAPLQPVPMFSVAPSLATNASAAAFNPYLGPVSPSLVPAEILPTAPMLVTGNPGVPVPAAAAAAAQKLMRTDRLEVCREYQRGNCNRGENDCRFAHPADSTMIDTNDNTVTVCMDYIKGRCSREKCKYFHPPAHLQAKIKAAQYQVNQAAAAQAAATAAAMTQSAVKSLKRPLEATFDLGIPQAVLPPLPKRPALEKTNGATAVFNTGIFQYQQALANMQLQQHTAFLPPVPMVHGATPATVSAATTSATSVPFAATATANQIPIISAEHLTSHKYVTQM
Method in brief: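 Compounds (final 92 nM to 58 uM) are added to His-tagged MBNL1 and biotin-(CUG)12, then terbium anti-His antibody and streptavidin-XL665 (5 nM final). After 60 min at room temperature, the 665/545 nm ratio is read.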
In the case of `Cn1c(N)c(N=O)c(=O)n(C)c1=O`, the Potency is reported as inconclusive: 14.1 µM [quencher, side channel, partial curve].
For `C#CC[N+](C)(C)CCCCCCCCC`, the activity change, negative = inhibition was inconclusive: -13.5% [phenotype inactive].
`CCCOc1c(OC)cccc1C1CC(=O)Nc2cc3c(cc21)OCO3` (stereo not given) was tested, and the Potency was inconclusive: 6.31 µM [quencher, side channel, single point].
With `COC1=Cc2c(ccc3ccc(=O)oc23)OC1(C)C` the Potency was inconclusive: 20 µM [quencher, side channel, single point].
For `Cc1ccc2c(c1)C(=O)C(=O)N2CC1COc2ccccc2O1` (stereo not given), the Potency was inconclusive: 15.8 µM [quencher, side channel, partial curve].
In the case of `CCOC(=O)N1CCN(C(=O)CCc2ccccc2)CC1`, the Potency is reported as “inactive”.
`CC1CN(C)C(C)C/C1=N\Oc1ccc([N+](=O)[O-])cc1` (stereo not given) was tested, and the Potency was inconclusive: 17.8 µM [quencher, side channel, partial curve].
`CCCC(c1nnnn1C(C)(C)CC)N(CCCO)Cc1cc2cc(C)cc(C)c2[nH]c1=O` (stereo not given) was tested, and the Potency was inconclusive: 31.6 µM [quencher, single point].
For `Nc1cc(-c2ccc(Cl)cc2)nn1S(=O)(=O)c1cccc2nsnc12`, the Potency was inconclusive: 14.1 µM [quencher, side channel, partial curve].
For `COc1ccccc1NC(=O)/C(=C\c1cccs1)NC(=O)c1ccco1`, the Potency was inconclusive: 15.8 µM [quencher, side channel, single point].
For `O=C(Nc1nc(-c2ccccc2)cs1)c1cccc([N+](=O)[O-])c1C(=O)O`, the activity change, negative = inhibition was inconclusive: 19.2% [phenotype inactive].
`CC1(C)C(=O)Nc2ccccc2N1C(=O)COC(=O)c1cc([N+](=O)[O-])ccc1N` was tested, and the Potency was inconclusive: 31.6 µM [quencher, side channel, single point].
With `Oc1ccc(N=Cc2ccc(-c3cccs3)s2)cc1` the Potency was inconclusive: 12.6 µM [quencher, side channel, partial curve].
With `COc1ccc(P(=O)(COc2ccc([N+](=O)[O-])cc2)c2ccc(OC)cc2)cc1` the Potency was inconclusive: 39.8 µM [quencher, side channel, partial curve].
`Cn1c(=O)c(C=Nc2ccccc2)c(O)c2ccccc21` was tested, and the Potency was “inactive”.
With `CC(=O)c1sc(-c2ccc(Cl)cc2)cc1N` the Potency was inconclusive: 25.1 µM [quencher, side channel, partial curve].
For `COc1ccc(NCc2nnc(SCC(=O)NCc3ccco3)n2-c2ccccc2OC)cc1`, the Potency was inconclusive: 7.08 µM [quencher, side channel, single point].
For `O=C(NCc1ccco1)c1cc2ccccc2c(=O)o1`, the Potency was inconclusive: 10 µM [quencher, side channel, partial curve].
In the case of `COc1ccc(/C=C/c2c([N+](=O)[O-])c(=O)n(C)c(=O)n2C)cc1`, the Potency is reported as inconclusive: 15.8 µM [quencher, side channel, partial curve].
For `CN(C(=O)CSc1nc2ccc([N+](=O)[O-])cc2s1)C1CCS(=O)(=O)C1` (stereo not given), the Potency was inconclusive: 12.6 µM [quencher, side channel, partial curve].
For `c1cncc(-c2noc(-c3ccco3)n2)c1`, the Potency was “inactive”.
`Cn1cccc1CC(=O)N/N=C/c1cccc([N+](=O)[O-])c1` was tested, and the Potency was inconclusive: 14.1 µM [quencher, side channel, partial curve].
In the case of `CCCCCCSC1=C(C#N)C(=O)NC2(CCCCC2)S1`, the Potency is reported as inconclusive: 7.08 µM [quencher, side channel, single point].
For `Cc1ccccc1-c1n[nH]c(=S)n1/N=C/C=C/c1ccco1`, the Potency was “inactive”.
In the case of `CN1CCN(c2ccc(NC(=O)CSc3ccccc3)cc2F)CC1`, the Potency is reported as inconclusive: 0.562 µM [quencher, side channel, single point].
For `Oc1c(Br)cc(/C=N/n2c(-c3ccccc3)n[nH]c2=S)c(Br)c1O`, the Potency was “inactive”.
In the case of `COc1cc(/C=N/NC(=O)[C@H](Cc2c[nH]c3ccccc23)NC(=O)OCC(C)C)cc([N+](=O)[O-])c1O`, the Potency is reported as inconclusive: 15.8 µM [quencher, side channel, partial curve].
With `Oc1ccc2ccccc2c1C=Nc1ccc(N2CCOCC2)cc1` the Potency was inconclusive: 7.08 µM [quencher, partial curve].
In the case of `Cc1[nH]c(N=Nc2ccccc2)nc1N=Nc1ccccc1`, the Potency is reported as inconclusive: 7.94 µM [quencher, side channel, full curve].
In the case of `COc1ccc(/C=N/NC(=S)NCc2ccccc2)cc1OC`, the Potency is reported as inconclusive: 39.8 µM [quencher, single point].
For `COc1ccc(C(=O)/C=C/c2ccccc2)c(O)c1`, the Potency was “inactive”.
`CCC1=NN(C(=O)c2ccc([N+](=O)[O-])cc2)C(O)(c2ccccc2)C1` (stereo not given) was tested, and the Potency was inconclusive: 14.1 µM [quencher, side channel, partial curve].
With `O=C(OCC(=O)c1cccc2ccccc12)c1ccc(CO)cc1` the Potency was inconclusive: 25.1 µM [quencher, partial curve].
For `Cc1ccc2cc(C#N)c(N3CCCN(C(=O)C4CCCO4)CC3)nc2c1` (stereo not given), the Potency was inconclusive: 35.5 µM [quencher, side channel, single point].
`Cc1ccsc1C(=O)N/N=C/C=C/c1ccccc1[N+](=O)[O-]` was tested, and the Potency was inconclusive: 14.1 µM [quencher, side channel, partial curve].
In the case of `O=C(Nc1cc([N+](=O)[O-])ccc1N1CCCC1)c1ccccc1`, the Potency is reported as inconclusive: 8.91 µM [quencher, partial curve].
In the case of `O=C(Cc1ccc(Cl)cc1)Nc1cccc(-c2nnc(-c3ccco3)o2)c1`, the Potency is reported as “inactive”.
With `CC(C)COc1ccc(CN=C(N)N=C(N)N)cc1Cl` the Potency was inconclusive: 0.1 µM [fluorescent, side channel, full curve, poor fit].
In the case of `c1ccc(CNc2nc(N3CCN(Cc4ccccc4)CC3)nc3ccccc23)cc1`, the Potency is reported as “inactive”.
For `CC1(c2ccccc2)NC(=O)N(CC(=O)Nc2ccc([N+](=O)[O-])cc2)C1=O` (stereo not given), the Potency was inconclusive: 20 µM [quencher, side channel, partial curve].
